Measurements from PubChem BioAssay AID1460 (National Center for Advancing Translational Sciences (NCATS), 2008).
About 5,800 (2.1%) of roughly 270,000 compounds were called active. This list was built around the results that the source calls inconclusive (neither active nor inactive); the mix of calls is not that of the screen. Calls come from the whole dose curve; as a rule, active = well fitted inhibition curve with a large enough effect; inconclusive = small, poorly fitted or top-dose-only effect; inactive = flat fitted curve, though single readings scatter. A potency beside an inconclusive call is a rough fit, not a confirmed value.

Molecular target: Microtubule-associated protein tau (Homo sapiens) (UniProt P10636)
Sequence of UniProt P10636 (P10636 whole entry, looked up): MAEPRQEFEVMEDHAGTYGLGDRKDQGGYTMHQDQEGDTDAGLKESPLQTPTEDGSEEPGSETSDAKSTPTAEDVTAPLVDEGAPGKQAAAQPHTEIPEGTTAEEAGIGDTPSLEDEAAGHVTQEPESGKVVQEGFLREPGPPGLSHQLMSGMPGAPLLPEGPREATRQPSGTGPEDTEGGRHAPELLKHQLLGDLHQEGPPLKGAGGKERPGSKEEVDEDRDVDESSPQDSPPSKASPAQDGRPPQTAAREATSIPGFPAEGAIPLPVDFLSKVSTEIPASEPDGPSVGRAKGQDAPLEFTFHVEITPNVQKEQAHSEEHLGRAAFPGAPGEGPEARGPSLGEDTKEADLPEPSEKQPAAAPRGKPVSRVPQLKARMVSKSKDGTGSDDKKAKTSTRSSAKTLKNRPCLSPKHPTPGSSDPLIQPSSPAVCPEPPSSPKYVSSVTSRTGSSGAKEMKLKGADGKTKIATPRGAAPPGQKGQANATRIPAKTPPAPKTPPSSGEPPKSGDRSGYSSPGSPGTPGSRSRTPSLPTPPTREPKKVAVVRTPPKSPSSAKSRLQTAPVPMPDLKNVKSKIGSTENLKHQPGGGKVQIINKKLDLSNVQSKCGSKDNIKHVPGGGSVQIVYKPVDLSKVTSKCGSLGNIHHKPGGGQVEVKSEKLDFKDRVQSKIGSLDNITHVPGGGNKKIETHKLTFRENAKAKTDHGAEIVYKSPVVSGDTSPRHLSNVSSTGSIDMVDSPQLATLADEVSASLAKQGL
Assay: qHTS for Inhibitors of Tau Fibril Formation, Thioflavin T Binding; note: nearly all actives have a fitted effect of over 55% in size
Details: recombinant tau K18 P301L (four-repeat tau fragment), heparin-induced fibrillization, ThT fluorescence; series mostly up to 57.4 µM
Procedure, shortened: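 K18 P301L tau (15 uM + 0.24 uM Alexa 594-tagged), heparin 20 uM, NaOAc pH 7, 6 h 37 C; ThT 30 uM, 1 h RT, ex 450/em 510 nm.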
Potency is the fitted concentration of half-maximal effect; tags give direction and shape of the fitted curve.

| SMILES | Potency |
| --- | --- |
| COc1ccc2c([N+](=O)[O-])c(Cl)[nH]c2c1 | active: 28.2 µM |
| CC(=O)c1cccc(NC(=O)c2sc3nc4c(cc3c2N)CCCC4)c1 | inconclusive: 3.16 µM [inhibitor, partial curve] |
| COc1ccc(N(CC(=O)Nc2ccc(S(=O)(=O)N3CCOCC3)cc2)S(=O)(=O)c2ccc(F)cc2)cc1 | inconclusive: 20 µM [inhibitor, partial curve] |
| CC(NC(=O)Nc1ccccc1O)(C(F)(F)F)C(F)(F)F | inconclusive: 22.4 µM [inhibitor, partial curve] |
| O=C(CSC1=Nc2ccccc2C2=NC(CC(=O)N3CCN(c4ccccc4)CC3)C(=O)N12)NCC1CCCO1 (stereo not drawn) | inconclusive: 25.1 µM [inhibitor, partial curve] |
| COc1ccccc1CN1CCN(C(CC(C)C)c2nnnn2Cc2cccs2)CC1 (stereo not drawn) | inactive |
| O=C1/C(=N/n2cnnc2)c2ccccc2N1Cc1ccccc1 | inconclusive: 39.8 µM [inhibitor, single point] |
| COc1ccc(-n2ncc3c(N4CCCc5ccccc54)ncnc32)cc1 | inconclusive: 20 µM [inhibitor, partial curve] |
| Cc1cc2nc(-c3ccc(SCC(=O)NC(C)C)nc3)[nH]c2cc1C | inconclusive: 25.1 µM [inhibitor, single point] |
| CCc1ccccc1NC(=O)CC(C)n1nc(C)cc1C (stereo not drawn) | inactive |
| Cc1c(NC(=S)N/N=C/c2cccc(O)c2)c(=O)n(-c2ccccc2)n1C | inactive |
| COc1cc2c3c(c1)/C(=C1/SC(NC(C)=O)=NC1=O)C(=O)N3C(C)(C)C=C2C | active: 15.8 µM |
| c1ccc(CSc2nnc3c4ccccc4c4ccccc4c3n2)cc1 | inconclusive: 44.7 µM [inhibitor, single point] |
| COc1ccc(C(=O)NC(=S)Nc2nc(C)cc(C)n2)cc1Br | inconclusive: 1 µM [inhibitor, full curve] |
| O=C(c1ccco1)N(CCC(c1ccccc1)c1ccco1)Cc1ccco1 (stereo not drawn) | inconclusive: 20 µM [inhibitor, partial curve] |
| O=C(Nc1sc2c(c1C(=O)O)CCC2)c1ccccc1 | inconclusive: 15.8 µM [inhibitor, partial curve] |
| CC(C)Nc1nnc(SCC(=O)c2c(N)n(Cc3ccccc3)c(=O)n(C)c2=O)s1 | inactive |
| COc1ccccc1NCCC(=O)OCC(=O)Nc1ccc(Cl)cn1 | inconclusive: 31.6 µM [inhibitor, single point] |
| C=CCN=C1NN=C(c2ccc3c(c2)OCCO3)CS1 | inconclusive: 5.01 µM [inhibitor, partial curve, poor fit] |
| O=[N+]([O-])c1ccccc1N/N=C1\CCc2ccccc21 | inconclusive: 2.24 µM [inhibitor, full curve] |
| Cc1csc(=Nc2ccccc2)n1Cc1ccco1 | inconclusive: 39.8 µM [inhibitor, single point] |
| Cc1cccn2c(=O)c(C(=O)NCCc3ccc(Cl)cc3)cnc12 | inconclusive: 15.8 µM [inhibitor, partial curve, poor fit] |

| SMILES | Potency |
| --- | --- |
| CC(=O)c1ccc(NC(=O)C2CCC(CNS(=O)(=O)c3cccc4nsnc34)CC2)cc1 (stereo not drawn) | inconclusive: 10 µM [inhibitor, partial curve] |
| COCCN1C(=O)c2[nH]nc(-c3c(C)cc(C)cc3O)c2C1c1cccc(O)c1 (stereo not drawn) | inconclusive: 20 µM [inhibitor, partial curve] |
| CCOc1ccc(NC(=O)C2CCCN(c3nnc(-n4c(C)ccc4C)s3)C2)cc1 (stereo not drawn) | inconclusive: 7.94 µM [inhibitor, single point] |
| Cc1ccc(NC(=O)CCC(=O)OCC(=O)c2ccc(Oc3ccc([N+](=O)[O-])cc3)cc2)c(C)c1 | inconclusive: 20 µM [inhibitor, partial curve] |
| CC1CCCN(c2ncnc3c2cnn3-c2ccccc2)C1 (stereo not drawn) | inconclusive: 20 µM [inhibitor, partial curve, poor fit] |
| CCCCC[n+]1ccn(C2=C([O-])c3ccccc3C(=O)/C2=N\S(=O)(=O)c2ccc(Cl)cc2)c1 | inconclusive: 3.55 µM [inhibitor, full curve] |
| Cc1nc2c(c(C)nn2C(C)(C)C)c(C)c1CCC(=O)Nc1ccc(Br)cc1Br | inactive |
| Cc1cccc(C(=O)N/N=C/c2ccc3c(c2)OCO3)n1 | inconclusive: 20 µM [inhibitor, single point] |
| O=C1c2ccccc2C(=O)N1CCCOc1ccccc1 | inconclusive: 5.01 µM [inhibitor, full curve] |
| CSc1nc(SCC(=O)NC(c2ccccc2)c2ccccc2)c2c3c(sc2n1)CN(C)CC3 | inconclusive: 25.1 µM [inhibitor, partial curve] |
| CCOc1cc(C2NN=C(c3ccccc3)S2)ccc1OCc1ccc(F)cc1 (stereo not drawn) | inconclusive: 14.1 µM [inhibitor, partial curve] |
| CC1(C)CC(=O)C(C=Nc2ccccc2)=C(O)C1 | inactive |
| CC(=O)c1ccc(NC(=O)C2CC(c3ccc(F)cc3)=NO2)cc1 (stereo not drawn) | inconclusive: 14.1 µM [inhibitor, partial curve] |
| COc1cccc(CNC(=O)CCC(=O)N2CC(C)Sc3ccccc32)c1 (stereo not drawn) | inactive |
| Cn1cccc1Cc1nnc(SCC(=O)NCc2ccco2)n1CCc1ccccc1 | inconclusive: 25.1 µM [inhibitor, single point] |
| CCc1nnc2c3ccccc3nc(N3CCN(c4cc(C)ccc4C)CC3)n12 | inconclusive: 20 µM [inhibitor, single point] |
| O=C(Nc1nnc(SCc2ccccc2Cl)s1)c1cccc([N+](=O)[O-])c1 | inconclusive: 14.1 µM [inhibitor, partial curve] |
| C=CCc1cc(/C=C2/NC(=O)N(CC)C2=O)cc(OCC)c1OCc1ccc(C(=O)O)cc1 | inactive |
| COc1ccc(-c2cc(C3CCN(C(=O)OC(C)(C)C)CC3)[nH]n2)cc1 | inactive |
| CCCCCCCCCCCCC/C=C/[C@@H](O)[C@H](CO)NC(=O)CCCCCCCCCCCCCCC | inactive |
| c1ccc(-c2cnc(SCCN3CCOCC3)n2CC2CCCO2)cc1 (stereo not drawn) | inactive |
